According to the antibiotic and cytotoxicity screens of Wong et al. (2023):
This is one part of the list.

Tested on: HSkMC (human skeletal muscle cells)
Test: cytotoxicity call (relative viability < 0.9)
Conditions: 10 µM

Structure (SMILES) | cytotoxicity call
C[C@H](CO)N1C[C@H](C)[C@@H](CN(C)S(=O)(=O)c2cccs2)Oc2ccc(NC(=O)c3ccncc3)cc2C1=O | inactive
O=C(O)CCNC(=O)c1cccc([N+](=O)[O-])c1 | inactive
CN(C)C(=O)C[C@@H]1CC[C@@H]2[C@H](COC[C@H](O)CN2S(=O)(=O)c2ccc(Oc3ccccc3)cc2)O1 | inactive
Cc1ccc(S(=O)(=O)NC(=O)NN2CCCCCC2)cc1 | inactive
C[C@H](CO)N1C[C@H](C)[C@@H](CN(C)C(=O)Nc2cccc3ccccc23)Oc2c(NC(=O)c3ccc(-c4nccs4)cc3)cccc2C1=O | inactive
CC(C)NC(=O)N(C)C[C@H]1Oc2ccc(NS(=O)(=O)c3ccc(Cl)cc3)cc2C(=O)N([C@H](C)CO)C[C@@H]1C | inactive
C[C@@H]1CN([C@@H](C)CO)C(=O)Cc2cc(NC(=O)c3ccncc3)ccc2O[C@@H]1CN(C)Cc1ccc(-c2ccccc2)cc1 | inactive
C[C@@H]1CN([C@@H](C)CO)C(=O)c2cc(NC(=O)Nc3ccc(F)cc3)ccc2O[C@H]1CN(C)C(=O)Nc1ccc(C(F)(F)F)cc1 | inactive
COCC#Cc1ccc([C@H]2[C@@H](CO)N3C(=O)CN(C(=O)CN4CCOCC4)C[C@@H]23)cc1 | inactive
O=C(Cn1cnnn1)NS(=O)(=O)c1ccccc1 | inactive

Tested on: HepG2
Test: cytotoxicity call (relative viability < 0.9)
Conditions: 10 µM

Structure (SMILES) | cytotoxicity call
CS(=O)(=O)NCc1ccsc1 | inactive
C[C@@H]1CCCCO[C@@H](CN(C)C)[C@@H](C)CN([C@H](C)CO)C(=O)c2cc(NC(=O)Nc3cccc4ccccc34)ccc2O1 | inactive
C[C@@H]1CCCCO[C@H](CN(C)C(=O)C2CCCCC2)[C@H](C)CN([C@H](C)CO)C(=O)c2cc(NC(=O)NC3CCCCC3)ccc2O1 | inactive
CC(C)NC(=O)Nc1ccc2c(c1)CC(=O)N([C@H](C)CO)C[C@@H](C)[C@H](CN(C)C(=O)Nc1ccc3c(c1)OCO3)O2 | inactive
Cc1noc(C)c1S(=O)(=O)N(C)C[C@H]1Oc2c(NC(=O)C3CCCCC3)cccc2C(=O)N([C@@H](C)CO)C[C@H]1C | inactive
Cc1cc(C(=O)Nc2cccc3c2O[C@H](CN(C)S(=O)(=O)c2cn(C)cn2)[C@@H](C)CN([C@@H](C)CO)C3=O)n(C)n1 | inactive
C[C@@H]1CN([C@@H](C)CO)C(=O)c2cc(NS(=O)(=O)c3cn(C)cn3)ccc2O[C@H]1CN(C)Cc1ccc(C(=O)O)cc1 | inactive
C[C@H]1CCCCO[C@H](CN(C)S(=O)(=O)c2ccc(F)cc2)[C@@H](C)CN([C@@H](C)CO)C(=O)c2cc(NC(=O)CCC(F)(F)F)ccc2O1 | inactive
C[C@@H]1CCCCO[C@H](CN(C)CC2CCCCC2)[C@H](C)CN([C@H](C)CO)C(=O)c2cc(NC(=O)CCCN(C)C)ccc2O1 | inactive
Cc1nccn1CC1CCc2c(c3ccccc3n2C)C1=O.Cl (stereo not given) | inactive
C[C@H](CO)N1C[C@H](C)[C@@H](CN(C)Cc2ccc(Oc3ccccc3)cc2)Oc2ccc(NC(=O)CCC(F)(F)F)cc2C1=O | inactive
C[C@@H]1CN([C@@H](C)CO)C(=O)c2cc(C#CCN(C)C)cnc2O[C@@H]1CN(C)Cc1ccc(C(=O)O)cc1 | inactive
COc1ccc(NC(=O)N(C)C[C@H]2OCCCC[C@@H](C)Oc3ccc(NS(=O)(=O)c4cccs4)cc3C(=O)N([C@H](C)CO)C[C@@H]2C)cc1 | inactive
CC(C)(O)C#Cc1ccc([C@@H]2[C@H]3CN(S(C)(=O)=O)CCCCN3[C@H]2CO)cc1 | inactive
Cc1noc(C)c1S(=O)(=O)N(C)C[C@H]1Oc2ccc(NS(=O)(=O)c3cn(C)cn3)cc2CC(=O)N([C@H](C)CO)C[C@H]1C | inactive
C[C@H]1CN([C@@H](C)CO)C(=O)c2cccc(NC(=O)c3cnccn3)c2O[C@H]1CN(C)C(=O)Nc1ccccc1 | inactive
O=c1[nH][nH]c(=S)n1C1CC1 | inactive
CCCNC1CCc2nc(N)sc2C1.Cl.Cl (stereo not given) | inactive
C[C@H]1CN([C@@H](C)CO)C(=O)Cc2cc(NC(=O)Cn3cnnn3)ccc2O[C@H]1CN(C)C(=O)Nc1ccccc1 | inactive
Cc1ccc(S(=O)(=O)Nc2ccc3c(c2)CC(=O)N([C@@H](C)CO)C[C@H](C)[C@@H](CN(C)C(=O)Nc2ccc(C(F)(F)F)cc2)O3)cc1 | inactive

Structure (SMILES) | cytotoxicity call
C[C@H]1CN([C@@H](C)CO)C(=O)Cc2cc(NC(=O)Cn3cnnn3)ccc2O[C@H]1CN(C)Cc1ccccc1 | inactive
COc1ccc(NC(=O)Nc2ccc3c(c2)C(=O)N([C@@H](C)CO)C[C@@H](C)[C@H](CN(C)CC2CC2)OCCCC[C@@H](C)O3)cc1 | inactive
Cc1ccc(S(=O)(=O)Nc2ccc3c(c2)C(=O)N([C@@H](C)CO)C[C@H](C)[C@@H](CN(C)C(=O)C2CCCCC2)OCCCC[C@H](C)O3)cc1 | inactive
CCCN(C)C[C@@H]1OCCCC[C@@H](C)Oc2ccc(NS(C)(=O)=O)cc2C(=O)N([C@@H](C)CO)C[C@@H]1C | inactive
Cc1noc(C)c1S(=O)(=O)Nc1ccc2c(c1)CC(=O)N([C@H](C)CO)C[C@H](C)[C@H](CN(C)S(C)(=O)=O)O2 | inactive
C=CCC[C@@H](Cc1ccc(F)cc1)C(=O)O[C@H](CNC(=O)[C@@H](CC=C)CC(=O)N(CCO)Cc1ccccc1)c1ccccc1 | inactive
Cc1ccc(-c2cnc3c(c2)C(=O)N([C@H](C)CO)C[C@@H](C)[C@@H](CN(C)C(=O)Cc2ccncc2)O3)cc1 | inactive
Cn1cnc(S(=O)(=O)N2C[C@@H](O)COC[C@H]3O[C@@H](CC(=O)NC4CCC4)CC[C@@H]32)c1 | inactive
COc1ccc(S(=O)(=O)Nc2ccc3c(c2)C(=O)N([C@@H](C)CO)C[C@H](C)[C@@H](CN(C)Cc2ccc(Cl)c(Cl)c2)O3)cc1 | inactive
C[C@H](CO)N1C[C@H](C)[C@@H](CN(C)CC2CCCCC2)Oc2ccc(NC(=O)CCCCCC(=O)Nc3ccccc3N)cc2C1=O | active
C[C@H](CO)N1C[C@H](C)[C@@H](CN(C)S(=O)(=O)c2cccs2)Oc2ccc(NC(=O)c3ccncc3)cc2C1=O | inactive
O=C(O)CCNC(=O)c1cccc([N+](=O)[O-])c1 | inactive
CN(C)C(=O)C[C@@H]1CC[C@@H]2[C@H](COC[C@H](O)CN2S(=O)(=O)c2ccc(Oc3ccccc3)cc2)O1 | inactive
Cc1ccc(S(=O)(=O)NC(=O)NN2CCCCCC2)cc1 | inactive
C[C@H](CO)N1C[C@H](C)[C@@H](CN(C)C(=O)Nc2cccc3ccccc23)Oc2c(NC(=O)c3ccc(-c4nccs4)cc3)cccc2C1=O | inactive
CC(C)NC(=O)N(C)C[C@H]1Oc2ccc(NS(=O)(=O)c3ccc(Cl)cc3)cc2C(=O)N([C@H](C)CO)C[C@@H]1C | inactive
C[C@@H]1CN([C@@H](C)CO)C(=O)Cc2cc(NC(=O)c3ccncc3)ccc2O[C@@H]1CN(C)Cc1ccc(-c2ccccc2)cc1 | inactive
C[C@@H]1CN([C@@H](C)CO)C(=O)c2cc(NC(=O)Nc3ccc(F)cc3)ccc2O[C@H]1CN(C)C(=O)Nc1ccc(C(F)(F)F)cc1 | inactive
COCC#Cc1ccc([C@H]2[C@@H](CO)N3C(=O)CN(C(=O)CN4CCOCC4)C[C@@H]23)cc1 | inactive
O=C(Cn1cnnn1)NS(=O)(=O)c1ccccc1 | inactive
